# Test results published in PMC7729032, “Interaction interface in the C-terminal parts of centriole proteins Sas6 and Ana2” (Open Biology, 2020).
# These are yes or no findings as the source states them, for the method shown. In cells and extracts the contact can be indirect. Some entries that bind do so weakly or less than the wild type. Tags and fused reporters may be left off the sequences shown.
# T1: GST-Ana2-4D deletion aa375–383 (Drosophila) (UniProt Q9XZ31)
# T1 sequence: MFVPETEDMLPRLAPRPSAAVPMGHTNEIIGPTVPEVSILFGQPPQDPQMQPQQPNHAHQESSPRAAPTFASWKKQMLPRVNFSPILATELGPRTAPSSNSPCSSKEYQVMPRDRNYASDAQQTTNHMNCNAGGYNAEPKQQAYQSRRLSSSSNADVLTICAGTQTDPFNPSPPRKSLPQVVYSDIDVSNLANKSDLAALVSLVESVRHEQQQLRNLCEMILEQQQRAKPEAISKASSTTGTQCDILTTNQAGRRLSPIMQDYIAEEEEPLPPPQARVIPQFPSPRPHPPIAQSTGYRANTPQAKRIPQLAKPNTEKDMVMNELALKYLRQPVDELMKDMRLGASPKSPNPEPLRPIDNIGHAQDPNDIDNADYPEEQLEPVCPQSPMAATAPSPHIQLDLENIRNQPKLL
# T2: GST-tagged Ana2-4D (phosphomimetic Ana2) (Drosophila) (UniProt Q9XZ31)
# T2 sequence: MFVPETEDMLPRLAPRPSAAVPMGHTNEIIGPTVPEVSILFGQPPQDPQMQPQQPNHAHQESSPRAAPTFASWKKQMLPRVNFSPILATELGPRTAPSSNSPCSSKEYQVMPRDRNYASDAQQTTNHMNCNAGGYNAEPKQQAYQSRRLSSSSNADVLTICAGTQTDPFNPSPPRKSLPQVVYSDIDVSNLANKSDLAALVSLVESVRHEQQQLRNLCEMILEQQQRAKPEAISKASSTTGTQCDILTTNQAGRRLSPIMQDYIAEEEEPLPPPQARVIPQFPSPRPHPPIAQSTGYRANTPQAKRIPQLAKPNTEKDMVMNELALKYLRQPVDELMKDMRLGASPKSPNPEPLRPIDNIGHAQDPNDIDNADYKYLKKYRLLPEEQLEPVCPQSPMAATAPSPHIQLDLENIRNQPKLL
# T3: GST-Ana2-4D with both deletions aa325–331 and aa375–383 (Drosophila) (UniProt Q9XZ31)
# T3 sequence: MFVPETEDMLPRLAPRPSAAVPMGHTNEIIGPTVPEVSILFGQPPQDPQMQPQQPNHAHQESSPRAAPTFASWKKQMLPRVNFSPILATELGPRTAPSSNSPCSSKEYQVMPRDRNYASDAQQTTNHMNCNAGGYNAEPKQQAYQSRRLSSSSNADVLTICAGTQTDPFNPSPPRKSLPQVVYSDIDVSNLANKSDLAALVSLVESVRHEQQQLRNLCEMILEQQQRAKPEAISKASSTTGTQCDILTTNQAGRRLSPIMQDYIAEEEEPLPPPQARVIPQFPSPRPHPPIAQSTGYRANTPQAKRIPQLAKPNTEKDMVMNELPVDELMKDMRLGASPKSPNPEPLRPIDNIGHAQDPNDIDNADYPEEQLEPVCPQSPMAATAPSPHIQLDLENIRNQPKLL
# T4: GST-Ana2-4D deletion aa325–331 (Drosophila) (UniProt Q9XZ31)
# T4 sequence: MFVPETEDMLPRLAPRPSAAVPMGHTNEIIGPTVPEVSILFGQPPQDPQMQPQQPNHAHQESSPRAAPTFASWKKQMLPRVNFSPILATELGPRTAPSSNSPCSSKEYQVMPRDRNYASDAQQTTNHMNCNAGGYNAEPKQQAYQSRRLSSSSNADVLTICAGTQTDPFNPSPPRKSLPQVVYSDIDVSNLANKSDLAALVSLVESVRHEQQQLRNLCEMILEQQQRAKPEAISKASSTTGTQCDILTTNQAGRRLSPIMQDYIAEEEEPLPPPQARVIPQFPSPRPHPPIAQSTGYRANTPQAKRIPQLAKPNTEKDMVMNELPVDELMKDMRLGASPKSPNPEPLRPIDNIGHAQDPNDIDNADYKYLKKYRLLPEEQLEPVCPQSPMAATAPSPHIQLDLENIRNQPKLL
# T5: 3xFLAG-Ana2-4D (Drosophila) (UniProt Q9XZ31)
# T5 sequence: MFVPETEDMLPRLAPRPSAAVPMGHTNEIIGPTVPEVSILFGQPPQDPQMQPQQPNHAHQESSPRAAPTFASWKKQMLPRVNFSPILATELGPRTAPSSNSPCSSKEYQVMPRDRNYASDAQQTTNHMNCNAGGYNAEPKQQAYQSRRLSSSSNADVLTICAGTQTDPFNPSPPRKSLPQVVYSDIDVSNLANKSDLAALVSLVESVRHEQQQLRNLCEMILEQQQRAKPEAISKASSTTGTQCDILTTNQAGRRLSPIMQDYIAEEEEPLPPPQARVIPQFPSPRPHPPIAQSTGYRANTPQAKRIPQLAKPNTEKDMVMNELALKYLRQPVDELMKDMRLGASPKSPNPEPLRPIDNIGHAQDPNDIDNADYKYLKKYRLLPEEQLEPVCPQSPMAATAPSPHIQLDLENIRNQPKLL
# Experiments:
# [1] = target: T1, GST-Ana2-4D deletion aa375–383 (Drosophila); assay: pull-down; bait from lysate on Glutathione-Sepharose 4B, washed; lysate with MBP-tagged prey added, 1 h at 4°C; washes in 20 mM Tris–HCl pH 7.5, 250 mM NaCl, 5% glycerol, 1 mM DTT, 0.5% Triton; SDS–PAGE with PageBlue staining; only the target purified
# [2] = target: T2, GST-tagged Ana2-4D (phosphomimetic Ana2) (Drosophila); assay: as above
# [3] = target: T3, GST-Ana2-4D with both deletions aa325–331 and aa375–383 (Drosophila); assay: as above
# [4] = target: T4, GST-Ana2-4D deletion aa325–331 (Drosophila); assay: as above
# [5] = target: T5, 3xFLAG-Ana2-4D (Drosophila); assay: co-IP; D.Mel-2 cells co-transfected with 3xFLAG-Ana2 (4A or 4D) and Sas6-6xMyc (wt or Δ385-410), 25 µM MG132 for 5 h; anti-FLAG M2 magnetic beads; immunoblotting
Binder,binding [2],also measured
"MBP-Sas6 wild-type (protein, UniProt Q9VAC8 1-472) MWPPGSEDSYSAKMDYGKSVVNILPSVEMLVNFNGEMTRSSKRSCLLYAERVDFKELLQLRLTEKSDQRRMYITTVDSASFQDLKQDQSLNVSFSGFIDNVVRMLKDCQSGKLELHLTTRDQNLSSGREVHDYYLQFVEIRSFKNLVHLSLPCRSAPLNTVLFYINSMLEASHKKQYILEQSMQQMQAEINAQRAHAERLTTENTNIREALAENTRILEEKHAAEVHQYQEKLSKINEQRSNELERNRRAISGFQAQLDKASLEKAELKSAQEQAEKRCQTLSEELSCCKARVCTLKEQNDKLHGDVANIRKHERKLEYKIEDLKQHTVELQEHIQKGNKEKANIAAELEAEKKILHTKRQALEMASEEISKANQIIVKQSQELLNLKKTIAWRTEVALQQEKAVQAKESLLSLRENELREARITIEKLREEIPQQLQSMRNFAQGLEQKYSKQILILKERLAIPTGKENRR",binds,binding [1]: binds; binding [3]: binds weakly; binding [4]: binds weakly
"MBP-Sas6 deletion aa398–410 (protein, UniProt Q9VAC8) MWPPGSEDSYSAKMDYGKSVVNILPSVEMLVNFNGEMTRSSKRSCLLYAERVDFKELLQLRLTEKSDQRRMYITTVDSASFQDLKQDQSLNVSFSGFIDNVVRMLKDCQSGKLELHLTTRDQNLSSGREVHDYYLQFVEIRSFKNLVHLSLPCRSAPLNTVLFYINSMLEASHKKQYILEQSMQQMQAEINAQRAHAERLTTENTNIREALAENTRILEEKHAAEVHQYQEKLSKINEQRSNELERNRRAISGFQAQLDKASLEKAELKSAQEQAEKRCQTLSEELSCCKARVCTLKEQNDKLHGDVANIRKHERKLEYKIEDLKQHTVELQEHIQKGNKEKANIAAELEAEKKILHTKRQALEMASEEISKANQIIVKQSQELLNLKKTIAWRTEVLLSLRENELREARITIEKLREEIPQQLQSMRNFAQGLEQKYSKQILILKERLAIPTGKENRR",binds weakly,–
"Sas6-wt-6xMyc (protein, UniProt Q9VAC8 1-472) MWPPGSEDSYSAKMDYGKSVVNILPSVEMLVNFNGEMTRSSKRSCLLYAERVDFKELLQLRLTEKSDQRRMYITTVDSASFQDLKQDQSLNVSFSGFIDNVVRMLKDCQSGKLELHLTTRDQNLSSGREVHDYYLQFVEIRSFKNLVHLSLPCRSAPLNTVLFYINSMLEASHKKQYILEQSMQQMQAEINAQRAHAERLTTENTNIREALAENTRILEEKHAAEVHQYQEKLSKINEQRSNELERNRRAISGFQAQLDKASLEKAELKSAQEQAEKRCQTLSEELSCCKARVCTLKEQNDKLHGDVANIRKHERKLEYKIEDLKQHTVELQEHIQKGNKEKANIAAELEAEKKILHTKRQALEMASEEISKANQIIVKQSQELLNLKKTIAWRTEVALQQEKAVQAKESLLSLRENELREARITIEKLREEIPQQLQSMRNFAQGLEQKYSKQILILKERLAIPTGKENRR",–,binding [5]: binds
"MBP-Sas6 deletion aa385–410 (protein, UniProt Q9VAC8) MWPPGSEDSYSAKMDYGKSVVNILPSVEMLVNFNGEMTRSSKRSCLLYAERVDFKELLQLRLTEKSDQRRMYITTVDSASFQDLKQDQSLNVSFSGFIDNVVRMLKDCQSGKLELHLTTRDQNLSSGREVHDYYLQFVEIRSFKNLVHLSLPCRSAPLNTVLFYINSMLEASHKKQYILEQSMQQMQAEINAQRAHAERLTTENTNIREALAENTRILEEKHAAEVHQYQEKLSKINEQRSNELERNRRAISGFQAQLDKASLEKAELKSAQEQAEKRCQTLSEELSCCKARVCTLKEQNDKLHGDVANIRKHERKLEYKIEDLKQHTVELQEHIQKGNKEKANIAAELEAEKKILHTKRQALEMASEEISKANQIIVKQSQELLLSLRENELREARITIEKLREEIPQQLQSMRNFAQGLEQKYSKQILILKERLAIPTGKENRR",no binding,–
"MBP-Sas6 deletion aa385–398 (protein, UniProt Q9VAC8) MWPPGSEDSYSAKMDYGKSVVNILPSVEMLVNFNGEMTRSSKRSCLLYAERVDFKELLQLRLTEKSDQRRMYITTVDSASFQDLKQDQSLNVSFSGFIDNVVRMLKDCQSGKLELHLTTRDQNLSSGREVHDYYLQFVEIRSFKNLVHLSLPCRSAPLNTVLFYINSMLEASHKKQYILEQSMQQMQAEINAQRAHAERLTTENTNIREALAENTRILEEKHAAEVHQYQEKLSKINEQRSNELERNRRAISGFQAQLDKASLEKAELKSAQEQAEKRCQTLSEELSCCKARVCTLKEQNDKLHGDVANIRKHERKLEYKIEDLKQHTVELQEHIQKGNKEKANIAAELEAEKKILHTKRQALEMASEEISKANQIIVKQSQELLQQEKAVQAKESLLSLRENELREARITIEKLREEIPQQLQSMRNFAQGLEQKYSKQILILKERLAIPTGKENRR",no binding,–
"MBP-Sas6 polyalanine mutant (V397A, Q400A, Q401A, E402A, K403A) (protein, UniProt Q9VAC8 1-472) MWPPGSEDSYSAKMDYGKSVVNILPSVEMLVNFNGEMTRSSKRSCLLYAERVDFKELLQLRLTEKSDQRRMYITTVDSASFQDLKQDQSLNVSFSGFIDNVVRMLKDCQSGKLELHLTTRDQNLSSGREVHDYYLQFVEIRSFKNLVHLSLPCRSAPLNTVLFYINSMLEASHKKQYILEQSMQQMQAEINAQRAHAERLTTENTNIREALAENTRILEEKHAAEVHQYQEKLSKINEQRSNELERNRRAISGFQAQLDKASLEKAELKSAQEQAEKRCQTLSEELSCCKARVCTLKEQNDKLHGDVANIRKHERKLEYKIEDLKQHTVELQEHIQKGNKEKANIAAELEAEKKILHTKRQALEMASEEISKANQIIVKQSQELLNLKKTIAWRTEAALAAAAAVQAKESLLSLRENELREARITIEKLREEIPQQLQSMRNFAQGLEQKYSKQILILKERLAIPTGKENRR",no binding,–
"Sas6-Δ385–410-6xMyc (protein, UniProt Q9VAC8) MWPPGSEDSYSAKMDYGKSVVNILPSVEMLVNFNGEMTRSSKRSCLLYAERVDFKELLQLRLTEKSDQRRMYITTVDSASFQDLKQDQSLNVSFSGFIDNVVRMLKDCQSGKLELHLTTRDQNLSSGREVHDYYLQFVEIRSFKNLVHLSLPCRSAPLNTVLFYINSMLEASHKKQYILEQSMQQMQAEINAQRAHAERLTTENTNIREALAENTRILEEKHAAEVHQYQEKLSKINEQRSNELERNRRAISGFQAQLDKASLEKAELKSAQEQAEKRCQTLSEELSCCKARVCTLKEQNDKLHGDVANIRKHERKLEYKIEDLKQHTVELQEHIQKGNKEKANIAAELEAEKKILHTKRQALEMASEEISKANQIIVKQSQELLLSLRENELREARITIEKLREEIPQQLQSMRNFAQGLEQKYSKQILILKERLAIPTGKENRR",–,binding [5]: no binding
